Assay results: article PMC4336329 (PLoS ONE, 2015)
In all, about 310,000 compounds went through this assay and about 2,200 (0.71%) showed an effect of 50% or more. Effects have a minus sign here. This is one part of the list.

Target: human ether-à-go-go-related gene (hERG) potassium channel (human, UniProt Q12809)
Assay: primary screen, population patch clamp on CHO cells stably expressing hERG

Chain of human ether-à-go-go-related gene (hERG) potassium channel (Q12809 whole entry, looked up): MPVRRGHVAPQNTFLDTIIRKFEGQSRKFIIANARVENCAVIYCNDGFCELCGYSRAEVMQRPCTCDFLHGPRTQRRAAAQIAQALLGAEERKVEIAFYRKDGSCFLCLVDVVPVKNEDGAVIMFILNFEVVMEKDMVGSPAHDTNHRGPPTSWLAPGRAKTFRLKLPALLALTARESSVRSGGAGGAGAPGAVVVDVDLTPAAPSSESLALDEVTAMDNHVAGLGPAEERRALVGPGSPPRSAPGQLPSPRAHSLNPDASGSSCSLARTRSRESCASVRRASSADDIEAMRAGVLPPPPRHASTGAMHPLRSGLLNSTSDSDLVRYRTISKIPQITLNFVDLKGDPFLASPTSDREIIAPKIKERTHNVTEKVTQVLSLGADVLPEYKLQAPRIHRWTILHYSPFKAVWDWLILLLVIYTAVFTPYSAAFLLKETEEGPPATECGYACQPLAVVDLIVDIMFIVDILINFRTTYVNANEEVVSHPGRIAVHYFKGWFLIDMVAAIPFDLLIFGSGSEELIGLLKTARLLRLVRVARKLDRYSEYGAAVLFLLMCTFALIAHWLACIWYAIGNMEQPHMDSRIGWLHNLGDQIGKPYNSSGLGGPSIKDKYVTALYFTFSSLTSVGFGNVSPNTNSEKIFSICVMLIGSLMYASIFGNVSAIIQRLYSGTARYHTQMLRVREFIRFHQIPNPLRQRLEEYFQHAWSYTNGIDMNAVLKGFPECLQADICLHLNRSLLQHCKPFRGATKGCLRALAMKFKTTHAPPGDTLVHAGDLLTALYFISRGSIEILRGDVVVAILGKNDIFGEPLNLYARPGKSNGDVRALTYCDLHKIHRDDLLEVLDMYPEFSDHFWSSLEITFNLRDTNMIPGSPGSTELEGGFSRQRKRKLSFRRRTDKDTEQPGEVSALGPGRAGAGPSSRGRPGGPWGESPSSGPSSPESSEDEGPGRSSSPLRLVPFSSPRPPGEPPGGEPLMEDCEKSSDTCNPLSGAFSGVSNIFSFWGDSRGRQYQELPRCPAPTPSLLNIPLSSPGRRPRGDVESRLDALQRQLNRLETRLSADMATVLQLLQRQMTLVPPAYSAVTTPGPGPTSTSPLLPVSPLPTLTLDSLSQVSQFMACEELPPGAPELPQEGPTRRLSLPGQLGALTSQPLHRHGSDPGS

Structure (SMILES)	hERG current change (%, negative = inhibition) at 1uM [%]
O=C(NCCc1c[nH]c2ccccc12)C(=O)NCC(c1ccco1)N1CCN(c2ccccc2)CC1 (stereo not shown)	1.16
CCOc1ccc(C(=O)OCC(=O)N2CCCC2)cc1	22.8
S=c1[nH]c(-c2ccccc2)cn1/N=C/c1ccccc1Br	11.6
Cc1ccc(-c2nc(CSCC(=O)NCCCN3CCOCC3)c(C)o2)cc1	14.1
Cc1ccccc1-c1cc(C(=O)NCc2cccs2)nn1CC1CC(c2cccc([N+](=O)[O-])c2)=NO1 (stereo not shown)	10.8
COc1cccc(CN(C(=O)Cc2c[nH]c3ccccc23)C(C(=O)NC2CCCCC2)c2ccc(C)o2)c1 (stereo not shown)	13.2
CCOc1ccc(OCC)c(NC(=O)CN(c2ccc(C)cc2)S(=O)(=O)c2c(C)noc2C)c1	3.61
O=C(C[n+]1cccc(C(=O)Nc2ccccc2)c1)c1ccc([N+](=O)[O-])cc1.[Br-]	-61
Cc1cc2cc(CCNC(=O)CCc3ccccc3)c(=O)[nH]c2cc1C	6.15
Cc1cc(C)n(-c2ccc(C(=O)NCC(c3ccco3)N3CCCC3)cc2)n1 (stereo not shown)	6.49
O=C1CC(N2CCSCC2)C(=O)N1CCc1ccccc1 (stereo not shown)	-2.17
C/C(=N/NC(=O)c1ccncc1)c1cc2ccc(O)cc2oc1=O	12.9
Cc1nnc(SCC(=O)Nc2ccc(Cl)cn2)[nH]c1=O	11.9
COc1c(Cl)cc(Cl)cc1C(=O)Nc1ccc(CN2CCOCC2)cc1	14.4
O=C(c1cc(Sc2ccc(Cl)cc2)nc2ccccc12)N1CCN(c2ccccn2)CC1	11.2
Cc1nc2sc(C#N)c(N)c2c2c1CCCC2	-6.38
CCC1(C)NC(=O)N(CC(=O)Nc2sc3c(c2C(N)=O)CCC3)C1=O (stereo not shown)	8.18
O=C1CN(C(=O)COC(=O)c2ccc(N3CCCCCC3)c([N+](=O)[O-])c2)c2ccccc2N1	11.7
CC(C)Oc1ccc(C(=O)NCc2cccs2)cc1	-2.12
C=CCn1c2ccccc2c2n[nH]c(=S)nc21	9.36
COc1ccc2oc(C(=O)NCC(c3ccco3)N(C)C)c(C)c2c1 (stereo not shown)	0.59
Cc1noc(/C=C/Nc2ccc(F)cc2F)c1[N+](=O)[O-]	10.4

Structure (SMILES)	hERG current change (%, negative = inhibition) at 1uM [%]
CCCCc1cc(C)c(S(=O)(=O)c2ccccc2C)c(=O)[nH]1	11.6
CCOC(=O)c1[nH]c(CSc2nnnn2-c2ccccc2C)c(C(=O)OCC)c1C	8.94
CC1=NN(c2ccc(N)cc2)C(=O)C1.Cl	6.79
NC(=O)c1ccc(NC(=O)c2cccc3c2OCCCO3)cc1	5.36
COc1ccc2nc(N3CCCC(C(=O)NCCCN4CCN(C)CC4)C3)sc2c1 (stereo not shown)	11.1
CN1CCN(NC(=S)NC2CCCC2)CC1	13.2
COc1cccc(C(=O)CSc2nnc(CNc3nc(-c4ccccc4)cs3)n2C)c1	11.1
COc1ccc(S(=O)(=O)N2CCCC(C(=O)NCc3cccnc3)C2)cc1OC (stereo not shown)	-6.91
COc1ccc(CN2CCNC(=O)C2CC(=O)N(C)Cc2nc(C)cs2)c(OC)c1 (stereo not shown)	10.9
COc1ccc(S(=O)(=O)Nc2nc(C(F)(F)F)cs2)cc1	11.1
O=C(CCc1c[nH]c2ccccc12)NCc1ccc2c(c1)OCO2	3.27
COc1ccc(N=C2SC(CC(=O)Nc3ccccc3F)C(=O)N2Cc2ccco2)cc1 (stereo not shown)	11.8
Cc1ccc(CN2CCNC(=O)C2CC(=O)N(Cc2c(C)nn(C)c2C)C2CC2)o1 (stereo not shown)	9.37
CC12CCC(=O)N1C(C(=O)NNC(=O)COc1cccc(C(F)(F)F)c1)CS2 (stereo not shown)	15.2
O=C(NC(=S)NNC(=O)c1ccccc1O)c1ccc([N+](=O)[O-])cc1	5.78
CC1CCCN(C(=O)CN(C)S(=O)(=O)c2ccc3c(c2)c(=O)n(C)c(=O)n3C)C1 (stereo not shown)	4.82
CCc1noc(C)c1C(=O)N1CCCC(CCC(=O)NCc2ccc(F)c(F)c2)C1 (stereo not shown)	-2.87
CC1(C)Cc2c(ccc3ccccc23)-c2nnc(-c3cccnc3)n21	2.73
CC(C)C(NC(=O)C1CCCCC1)C(=O)NC1=NCCS1 (stereo not shown)	13
Cc1c(NC(=O)CSc2nnc(-c3cccc(Cl)c3)o2)c(=O)n(-c2ccccc2)n1C	9.8
COc1ccc(C(=O)COC(=O)CCc2nc3ccccc3[nH]c2=O)cc1Br	15.7
